According to the supplement of paper PMC6657886:

Legend:
Assay in all cases: Agar dilution on enriched GC agar; resistance determinants by microarray.
benzylpenicillin = compound: CC1(C)S[C@@H]2[C@H](NC(=O)Cc3ccccc3)C(=O)N2[C@H]1C(=O)O [benzylpenicillin]
azithromycin = compound: CC[C@H]1OC(=O)[C@H](C)[C@@H](O[C@H]2C[C@@](C)(OC)[C@@H](O)[C@H](C)O2)[C@H](C)[C@@H](O[C@@H]2O[C@H](C)C[C@H](N(C)C)[C@H]2O)[C@](C)(O)C[C@@H](C)CN(C)[C@H](C)[C@@H](O)[C@]1(C)O [azithromycin]
tetracycline = compound: CN(C)[C@@H]1C(O)=C(C(N)=O)C(=O)[C@@]2(O)C(O)=C3C(=O)c4c(O)cccc4[C@@](C)(O)[C@H]3C[C@@H]12 [tetracycline]
spectinomycin = compound: CN[C@@H]1[C@H](O)[C@H](NC)[C@H]2O[C@@]3(O)C(=O)C[C@@H](C)O[C@H]3O[C@@H]2[C@H]1O [spectinomycin]
ceftriaxone = compound: CO/N=C(\C(=O)N[C@@H]1C(=O)N2C(C(=O)O)=C(CSc3nc(=O)c(O)nn3C)CS[C@H]12)c1csc(N)n1 [ceftriaxone]

| Test System | MIC (benzylpenicillin) [µg/mL] | MIC (azithromycin) [µg/mL] | MIC (tetracycline) [µg/mL] | MIC (spectinomycin) [µg/mL] | MIC (ceftriaxone) [µg/mL] |
| --- | --- | --- | --- | --- | --- |
| Neisseria gonorrhoeae isolate 319 (blaTEM plasmid: no, gyrA: wild type, mtrR promoter: wild type, parC: wild type, penA: wild type, ponA: wild type, porB: wild type, rpsJ: wild type, tetM plasmid: no) | 0.5 | 0.5 | 2 | 16 | 0.008 |
| Neisseria gonorrhoeae isolate 201 (blaTEM plasmid: no, gyrA: wild type, mtrR promoter: wild type, parC: wild type, penA: wild type, ponA: wild type, porB: wild type, rpsJ: wild type, tetM plasmid: no) | ≤ 0.015 | 0.12 | 0.12 | 16 | ≤ 0.002 |
| Neisseria gonorrhoeae isolate 497 (blaTEM plasmid: no, gyrA: wild type, mtrR promoter: wild type, parC: wild type, penA: wild type, ponA: wild type, porB: wild type, rpsJ: wild type, tetM plasmid: no) | ≤ 0.015 | 0.06 | 0.12 | 16 | ≤ 0.002 |
| Neisseria gonorrhoeae isolate 483 (blaTEM plasmid: no, gyrA: Thr91, Gly95, mtrR promoter: wild type, parC: wild type, penA: wild type, ponA: wild type, porB: wild type, rpsJ: wild type, tetM plasmid: yes) | 0.06 | 0.12 | 16 | 4 | 0.004 |
| Neisseria gonorrhoeae isolate 482 (blaTEM plasmid: no, gyrA: wild type, mtrR promoter: wild type, parC: wild type, penA: wild type, ponA: wild type, porB: wild type, rpsJ: wild type, tetM plasmid: no) | ≤ 0.015 | 0.12 | 0.12 | 16 | ≤ 0.002 |
| Neisseria gonorrhoeae isolate 296 (blaTEM plasmid: no, gyrA: wild type, mtrR promoter: wild type, parC: wild type, penA: wild type, ponA: wild type, porB: wild type, rpsJ: wild type, tetM plasmid: yes) | ≤ 0.015 | 0.004 | 16 | 32 | ≤ 0.002 |
| Neisseria gonorrhoeae isolate 71 (blaTEM plasmid: no, gyrA: Phe91, Gly95, mtrR promoter: wild type, parC: Arg87, Glu91, penA: ins345Asp, ponA: Pro421, porB: Asp120, Ala121, rpsJ: Met57, tetM plasmid: no) | 0.5 | 0.015 | 0.5 | 32 | ≤ 0.002 |
| Neisseria gonorrhoeae isolate 475 (blaTEM plasmid: no, gyrA: Thr91, Gly95, mtrR promoter: wild type, parC: wild type, penA: ins345Asp, ponA: wild type, porB: wild type, rpsJ: wild type, tetM plasmid: no) | 0.12 | 0.06 | 0.12 | 16 | ≤ 0.002 |
| Neisseria gonorrhoeae isolate 44 (blaTEM plasmid: yes, gyrA: wild type, mtrR promoter: wild type, parC: wild type, penA: ins345Asp, ponA: wild type, porB: wild type, rpsJ: wild type, tetM plasmid: yes) | 16 | 0.06 | 32 | 16 | ≤ 0.002 |
| Neisseria gonorrhoeae isolate 407 (blaTEM plasmid: no, gyrA: Phe91, Asn 95, mtrR promoter: -35delA, parC: wild type, penA: wild type, ponA: Pro421, porB: Asn120, Asp121, rpsJ: Met57, tetM plasmid: no) | 1 | 0.25 | 1 | 16 | 0.03 |
| Neisseria gonorrhoeae isolate 4 (blaTEM plasmid: no, gyrA: wild type, mtrR promoter: wild type, parC: wild type, penA: ins345Asp, ponA: Pro421, porB: wild type, rpsJ: Met57, tetM plasmid: no) | 0.03 | 0.06 | 0.12 | 4 | ≤ 0.002 |
| Neisseria gonorrhoeae isolate 278 (blaTEM plasmid: no, gyrA: wild type, mtrR promoter: wild type, parC: wild type, penA: ins345Asp, ponA: wild type, porB: wild type, rpsJ: Met57, tetM plasmid: no) | ≤ 0.015 | 1 | 0.06 | 64 | ≤ 0.002 |
| Neisseria gonorrhoeae isolate 237 (blaTEM plasmid: no, gyrA: wild type, mtrR promoter: wild type, parC: wild type, penA: wild type, ponA: wild type, porB: wild type, rpsJ: wild type, tetM plasmid: no) | 0.06 | 0.12 | 0.25 | 16 | 0.015 |
| Neisseria gonorrhoeae isolate 350 (blaTEM plasmid: no, gyrA: Phe91, Asn95, mtrR promoter: -35delA, parC: Arg87, Glu91, penA: ins345Asp, ponA: Pro421, porB: Lys 120, Gly121, rpsJ: Met57, tetM plasmid: no) | 0.5 | 0.25 | 2 | 16 | 0.004 |
| Neisseria gonorrhoeae isolate 214 (blaTEM plasmid: no, gyrA: Phe91, Asp95, mtrR promoter: wild type, parC: Ser87, Gly 91, penA: ins345Asp, ponA: wild type, porB: Asn120, Asp121, rpsJ: wild type, tetM plasmid: no) | 0.5 | 0.12 | 2 | 16 | 0.015 |
| Neisseria gonorrhoeae isolate 382 (blaTEM plasmid: no, gyrA: Phe91, Asp95, mtrR promoter: wild type, parC: wild type, penA: ins345Asp, ponA: wild type, porB: wild type, rpsJ: wild type, tetM plasmid: no) | 0.12 | 0.12 | 0.06 | 32 | 0.004 |
| Neisseria gonorrhoeae isolate 334 (blaTEM plasmid: no, gyrA: wild type, mtrR promoter: wild type, parC: wild type, penA: ins345Asp, ponA: Pro421, porB: wild type, rpsJ: wild type, tetM plasmid: no) | 0.06 | 0.03 | 0.25 | 8 | 0.008 |
| Neisseria gonorrhoeae isolate 442 (blaTEM plasmid: no, gyrA: wild type, mtrR promoter: wild type, parC: wild type, penA: wild type, ponA: wild type, porB: wild type, rpsJ: wild type, tetM plasmid: no) | ≤ 0.015 | 0.06 | 0.25 | 16 | ≤ 0.002 |
| Neisseria gonorrhoeae isolate 300 (blaTEM plasmid: no, gyrA: wild type, mtrR promoter: wild type, parC: wild type, penA: ins345Asp, ponA: wild type, porB: wild type, rpsJ: wild type, tetM plasmid: no) | 0.12 | 0.015 | 0.5 | 16 | 0.004 |
| Neisseria gonorrhoeae isolate 1 (blaTEM plasmid: no, gyrA: wild type, mtrR promoter: wild type, parC: wild type, penA: ins345Asp, ponA: wild type, porB: Asp120, Ala121, rpsJ: wild type, tetM plasmid: no) | 0.5 | 0.5 | 1 | 16 | 0.008 |
| Neisseria gonorrhoeae isolate 212 (blaTEM plasmid: no, gyrA: Phe91, Asn 95, mtrR promoter: wild type, parC: Arg 87, Glu91, penA: ins345Asp, ponA: Pro421, porB: wild type, rpsJ: Met57, tetM plasmid: no) | ≤ 0.015 | 0.06 | 0.5 | 16 | ≤ 0.002 |
| Neisseria gonorrhoeae isolate 364 (blaTEM plasmid: no, gyrA: wild type, mtrR promoter: wild type, parC: Arg87, Glu91, penA: ins345Asp, ponA: wild type, porB: wild type, rpsJ: wild type, tetM plasmid: no) | 0.5 | 0.015 | 0.5 | 32 | 0.004 |
| Neisseria gonorrhoeae isolate 74 (blaTEM plasmid: no, gyrA: wild type, mtrR promoter: wild type, parC: wild type, penA: ins345Asp, ponA: wild type, porB: wild type, rpsJ: wild type, tetM plasmid: no) | 0.06 | 0.03 | 0.12 | 16 | ≤ 0.002 |
| Neisseria gonorrhoeae isolate 450 (blaTEM plasmid: no, gyrA: wild type, mtrR promoter: wild type, parC: wild type, penA: wild type, ponA: wild type, porB: wild type, rpsJ: wild type, tetM plasmid: no) | ≤ 0.015 | 0.25 | 0.5 | 16 | ≤ 0.002 |
| Neisseria gonorrhoeae isolate 30 (blaTEM plasmid: no, gyrA: wild type, mtrR promoter: wild type, parC: Ser87, Gly 91, penA: wild type, ponA: wild type, porB: wild type, rpsJ: wild type, tetM plasmid: no) | ≤ 0.015 | 0.12 | 0.5 | 16 | ≤ 0.002 |

MIC of clinical N. gonorrhoeae isolates (2015-2017) by agar dilution on GC agar with 1% IsoVitaleX (ranges not stated); higher = less susceptible. No active / inactive call per row; the paper counts benzylpenicillin above 1 and ceftriaxone above 0.125 mg/L as resistant (EUCAST). The method is stated for benzylpenicillin and ceftriaxone and assumed for the other drugs. '<=' is inferred from pile-ups at the end values. Isolates are numbered anew.
